# Measurements taken from article PMC6919601, “Identification of Plasmodium dipeptidyl aminopeptidase allosteric inhibitors by high throughput screening” (PLoS ONE, 2019).
# Screen size: about 110,000 compounds; about 230 (0.21%) showed an effect of 50% or more. This is one part of the list.
# Biological target: DPAP1 (Plasmodium falciparum, UniProt Q8IIJ9)
# Assay: primary screen, percent inhibition; read by cleavage of a fluorogenic dipeptide substrate; higher = more effect of the substance
# Parameters: species or system P. falciparum D10 trophozoite lysates; single well
# 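Also: 30 min substrate incubation versus DMSO and 10 µM JCP410 controls.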
# DPAP1, sequence (Q8IIJ9 whole entry, looked up): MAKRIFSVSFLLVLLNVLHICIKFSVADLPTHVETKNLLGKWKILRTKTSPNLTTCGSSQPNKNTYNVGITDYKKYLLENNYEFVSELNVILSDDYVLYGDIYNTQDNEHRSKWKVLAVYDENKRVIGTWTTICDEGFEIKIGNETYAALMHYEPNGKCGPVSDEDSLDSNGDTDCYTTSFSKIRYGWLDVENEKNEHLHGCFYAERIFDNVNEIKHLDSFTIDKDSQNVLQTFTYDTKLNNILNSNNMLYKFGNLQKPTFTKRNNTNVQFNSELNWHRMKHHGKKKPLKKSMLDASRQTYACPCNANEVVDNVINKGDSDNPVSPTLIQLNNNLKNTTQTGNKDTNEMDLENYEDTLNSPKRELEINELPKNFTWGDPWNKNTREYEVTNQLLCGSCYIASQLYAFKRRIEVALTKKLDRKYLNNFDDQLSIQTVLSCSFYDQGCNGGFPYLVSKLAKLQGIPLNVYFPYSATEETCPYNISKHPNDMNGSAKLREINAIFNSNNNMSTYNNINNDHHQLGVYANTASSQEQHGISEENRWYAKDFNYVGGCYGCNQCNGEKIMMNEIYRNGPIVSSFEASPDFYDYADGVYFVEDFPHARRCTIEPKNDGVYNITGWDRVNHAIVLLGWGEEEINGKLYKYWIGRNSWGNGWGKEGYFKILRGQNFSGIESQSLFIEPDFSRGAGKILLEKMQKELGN
row,Compound,% Inhibition @ 10 uM [%]
1,CC1CCCC(C)N1C(=O)c1cc2nc(-c3ccco3)cc(C(F)(F)F)n2n1 (centres unmarked),4.57
2,O=C(CCc1ccccc1)N1N=C(c2ccncc2)CC1(O)C(F)(F)F (centres unmarked),2.23
3,COc1cccc(CN(C(=O)c2oc3cc(C)c(C)cc3c2C)C2CCS(=O)(=O)C2)c1 (centres unmarked),-1.35
4,CCNC(=S)NCCc1ccc(S(N)(=O)=O)cc1,-1.81
5,CC12CC(O)C3(F)C(CCC4=CC(=O)C=CC43C)C1CC=C2C(=O)CO (centres unmarked),-4.93
6,Cc1ccc(CN2CCN(S(=O)(=O)c3ccccc3)CC2)cc1,-7.18
7,COC(=O)C1=NNC2C(=O)N(c3ccccc3OC)C(=O)C12 (centres unmarked),-1.85
8,CN1CCN(c2nc(-c3ccc(C(=O)N[C@@H](Cc4cc(Cl)c(O)c(Cl)c4)C(=O)NCC#N)cc3)cs2)CC1,-6.46
9,COc1ccc(C2c3c(n(C)c4ccccc34)C(=O)N2CC(=O)NC2CCCCCC2)cc1 (centres unmarked),1.4
10,CC(=O)N1CCC(N2CCN(c3ccc(Cl)cc3)CC2)CC1,-0.292
11,COc1ccc(-c2noc(N3CCC(C(=O)NCCc4ccc(OC)c(OC)c4)CC3)n2)cc1,-4.37
12,CCOc1ccc(NC(=O)c2ccccc2Cl)cc1,-3.72
13,O=C(O)C(Cc1c[nH]c2ccccc12)Nc1c2ccccc2nc2ccccc12 (centres unmarked),-11.4
14,Cc1cc(C)nc(/N=C(/NC(=O)Nc2ccccc2)NC2CCCC2)n1,-5.3
15,CCc1ccc(OCC(=O)Nc2ccc(OC)cc2)cc1,-6.82
16,Cc1ccccc1C(=O)Nc1sc2c(c1C(=O)O)CCC2,-5.03
17,Cc1cc(NS(=O)(=O)c2ccc(NC(=O)C3CCCCC3)cc2)no1,-14.6
18,COc1ccc(NC(=O)C2=C(C)NC(=O)NC2c2ccc(Br)cc2)cc1 (centres unmarked),57.9
19,CC(NC(=O)C1CCN(c2cnccn2)CC1)c1cccs1 (centres unmarked),2.25
20,COc1ccccc1S(=O)Cc1ccc(C(=O)NCCCN2CCOCC2)o1 (centres unmarked),0.458
21,Cc1ccc(CNC(=O)Cn2cc3c(n2)CCCC3)cc1,0.137
22,Clc1cccc2c(NCc3ccc4c(c3)OCO4)cnnc12,3.43
23,CCOC(=O)c1sc(NC(=O)COc2ccccc2OC)nc1C,6.42
24,O=C(NCC1CCCO1)c1ccc(Cl)cc1Cl (centres unmarked),-2.54
25,O=C(O)CSc1nc2c(cnn2-c2ccccc2)c(=O)n1-c1ccc(Br)cc1,5.94

row,Compound,% Inhibition @ 10 uM [%]
1,Cn1c(SCc2ccc(F)cc2)nc2ccc(C(=O)NCCc3ccc(S(N)(=O)=O)cc3)cc21,-1.38
2,Cc1ccc(CNC(=O)c2ccc(Cn3nc(C)c(Cl)c3C)o2)cc1,-3.13
3,CCOc1ccc(C(=O)Nc2cccc(C(=O)O)c2)cc1Cl,5.12
4,CC(C)c1ccc(C2C=C(c3cccnc3)Nc3ncnn32)cc1 (centres unmarked),3.26
5,COc1ccc(C2CC(=O)n3nc(C45CC6CC(CC(C6)C4)C5)nc3S2)cc1OC (centres unmarked),6.76
6,Nc1n[nH]c(SCc2cc(=O)n3nc(C4CCCCC4)sc3n2)n1,-2.28
7,COc1ccccc1/C=[N+]1\NC(=O)C(NC(=O)c2cccc(C)c2)C1c1ccc(Cl)cc1 (centres unmarked),0.413
8,COCCNC(=O)Cn1ccc2cc(S(=O)(=O)N3CCCCC3)ccc21,3.97
9,COCCNC(=O)c1ccc(-n2c(C)cc3c2CCCC3)cc1,-6.21
10,NS(=O)(=O)c1ccc(NC(=O)COc2ccccc2Cl)cc1,-6.16
11,CCc1ccc(CNc2ccc(C(=O)O)cc2)cc1,-5.54
12,CCN1C(=O)NC(=O)/C(=C\c2cn(CC(=O)NCCOC)c3ccccc23)C1=O,3.79
13,O=C(NCc1cccnc1)c1ccc(COc2ccccc2Cl)o1,-17.2
14,CC(C)(CO)NC(=O)c1cc(-c2ccc(F)cc2)no1,4.85
15,O=C(COc1ccc(S(=O)(=O)NC2CCCCC2)cc1)NCc1cccnc1,5.99
16,Cc1ccc(C(=O)n2cnc3ccccc32)cc1C,21.9
17,CC1=C(c2ccc(C)c(C)c2)S(=O)(=O)N=C1N1CCC(C(=O)NCCCc2ccccc2)CC1,9.17
18,O=C(Nc1ccc(Cl)cn1)c1ccc2c(c1)OCCO2,4.07
19,Cc1cc(=O)n2nc(NC(C)C(=O)NCc3ccc(OC(C)C)cc3)sc2n1 (centres unmarked),-2
20,CCN(CC)CCCNC(=O)CSc1nc(-c2ccc(F)cc2)cc(C(F)(F)F)n1,-0.958
21,COc1cccc(C(=O)Nc2sc3c(c2C(N)=O)CCC(C)C3)c1 (centres unmarked),-7.08
22,Cc1ccc(CCNC(=O)CCS(=O)(=O)Cc2ccccc2Cl)cc1,-0.0542
23,O=C(c1ccccc1Br)N1CCc2ccccc2C1,0.273
24,N#CC1=C(N)Oc2c(c(=O)oc3ccccc23)C1c1ccc(F)c(Br)c1 (centres unmarked),3.03
25,CCOC(=O)c1[nH]c(C)c(CNCCc2ccc(OC)c(OC)c2)c1C,-0.834

row,Compound,% Inhibition @ 10 uM [%]
1,O=C(NCC1CCCO1)c1ccc(COc2ccc(Br)cc2)cc1 (centres unmarked),2.09
2,Cc1ccc(C(=O)C2=C(O)C(=O)N(c3nnc(C)s3)C2c2cccc(Oc3ccccc3)c2)cc1 (centres unmarked),0.487
3,CC1(C)[C@H]2CC=C(CN3CCCC(CO)C3)[C@@H]1C2 (some centres unmarked),4.55
4,Cc1ccccc1C(=O)Nc1nc2ccccc2s1,5.07
5,Cc1ccc2nc(NC(=O)C(Cc3ccccc3)n3cccc3)sc2c1 (centres unmarked),-4.21
6,O=C1CCCC(=O)C1=CNc1cccc2ccccc12,-4.43
7,COC(=O)c1c(C)oc2ccc(OC/C=C/c3ccccc3)cc12,1.37
8,C=CCN1C(=S)NC2c3cc(Br)ccc3OC1(C)C2C (centres unmarked),-4.23
9,CCOC(=O)CCCNC(=O)CCCNC(=O)C(c1ccccc1)c1ccccc1,3.18
10,O=C(c1cn(-c2ccccc2)nc1-c1ccccc1)N1CCCCC1,-4.06
11,Cc1ccc(C2C=C(c3ccccc3)Nc3nc(N4C(=O)c5ccccc5C4=O)nn32)cc1 (centres unmarked),-4.77
12,Cc1ccccc1NC(=O)CN1C(=O)S/C(=C/c2ccc(O)cc2)C1=O,15
13,Cc1nonc1N(Cc1ccc(Cl)cc1Cl)S(=O)(=O)c1ccccc1,-7.01
14,COc1ccc(-c2noc(CC(=O)N(C)CCC#N)n2)cc1,7.33
15,CC1=C(C(=O)Nc2ccc(Br)cn2)C(c2cnn(C)c2C)C2=C(O)CCCC2=N1 (centres unmarked),0.76
16,CCOC(=O)C1(C)C=C(Nc2ccc(Cl)cc2)C(=O)N1c1ccc(Cl)cc1 (centres unmarked),-4.93
17,O=C1C2C3C=CC(C3)C2C(=O)N1CCc1ccccc1 (centres unmarked),6.21
18,CCCOc1c(Cl)cc(/C=C2/NC(=S)NC2=O)cc1OC,1.4
19,Cc1nnc2c(NCc3ccc(C(=O)O)cc3)nc3ccccc3n12,3.17
20,Fc1cc(Br)ccc1-n1ncnc1-c1ccc(Cl)cc1,-3.74
21,O=c1oc2ccccc2c(N2CCN(c3ccccn3)CC2)c1CN1CCCC1,-1.68
22,CCOC(=O)N1CCN(S(=O)(=O)c2ccc(S(N)(=O)=O)cc2)CC1,-5
23,COc1ccc(-c2nc(-c3cccnc3)no2)cc1,3.32
24,Cc1ccc(NC(=O)C2c3ccccc3-c3ccccc32)cc1Br,6.4
25,Cc1ccc2c(c1)C1CN(C)CCC1N2S(C)(=O)=O (centres unmarked),0.605

row,Compound,% Inhibition @ 10 uM [%]
1,Oc1cc(-c2ccccc2)c2c(n1)CCCC2,6.13
2,COc1ccc(N(CC(=O)Nc2cccc3ccccc23)S(=O)(=O)c2ccccc2)c(OC)c1,3.69
3,Cc1cccc(NC(=O)C(CCS(C)(=O)=O)N2Cc3ccccc3C2=O)n1 (centres unmarked),5.32
4,Cc1nc2cc(-c3ccccc3)nn2c(C)c1CC(=O)NCc1ccc2c(c1)OCO2,0.953
5,O=C(CN1C(=O)S/C(=C\c2ccc3c(c2)OCO3)C1=O)c1ccc(Cl)cc1,-7.25
6,CC(C)(C)NC(=O)C1CCCN1S(=O)(=O)c1ccc(F)cc1 (centres unmarked),3.77
7,O=C(O)c1ccc(CN2CCN(c3ccccc3)CC2)cc1,-4.35
8,CCc1nnc(NS(=O)(=O)c2ccc(Cl)cc2)s1,-4.43
9,CCCNC(=O)CC(c1cc(OC)c(OC)c(OC)c1)N1Cc2ccccc2C1=O (centres unmarked),7.08
10,CSc1ccc(C2C(C#N)=C(N)N(c3nc[nH]n3)C3=C2C(=O)CC(C)(C)C3)cc1 (centres unmarked),-3.63
11,Cc1cccc(Cn2c(NCc3ccccc3)nc3c2c(=O)n(C)c(=O)n3C)c1,10.8
12,Cl/C(=C\c1ccccc1)CN1CCN(c2cccc(Cl)c2)CC1,-0.603
13,O=C(Nc1cc([N+](=O)[O-])ccc1Cl)c1cccc(C(=O)Nc2cc([N+](=O)[O-])ccc2Cl)c1,-7.02
14,O=C1c2cccc3c(NC(CO)(CO)CO)ccc(c23)C(=O)N1c1cccc(Cl)c1,-2.63
15,CC(C)C[C@H](NC(=O)c1ccc(NC(=O)NCc2ccncc2)cc1)C(=O)NCC#N,-2.35
16,COc1ccc(C2Oc3ccccc3C3CC(c4ccc(C)o4)=NN32)cc1OC (centres unmarked),-6.71
17,Cc1sc(NC(=O)c2ccc(Cl)cc2)c(C(=O)O)c1C,-3.58
18,COc1cccc(-c2cn3c(n2)sc2cc(C(=O)NCCCN4CCOCC4)ccc23)c1,5.11
19,Cc1onc(-c2ccccc2)c1C(=O)NCCCN(C)C,-5.3
20,O=C(NC1(C(F)(F)F)C(=O)Nc2c1c(=O)[nH]c(=O)n2CCc1ccccc1)C1CCCCC1 (centres unmarked),-1.18
21,O=C1CC(N2CCN(Cc3ccc4c(c3)OCO4)CC2)C(=O)N1c1ccc(Br)cc1 (centres unmarked),-1.65
22,O=C1c2ccncc2C(=O)N1c1ccc(Cl)cc1,-3.57
23,Cc1cccc(C)c1OCCCn1ccnc1,1.87
